Results are given in words; binding and its absence hold for the method and conditions named. Binding seen in cells or lysates may run through a third protein. Some binding calls cover weakened binding; strength is not graded here. For some assays here: Sequences can lack the tags named with a protein.
Experiments:
[1] = molecular target: Flag-LMNB1 (lamin B1) (human) (UniProt P20700); assay: co-IP; 293T cells transiently transfected with both tagged partners; IP buffer 50 mM Tris-HCl pH 7.4, 150 mM NaCl, 0.1% NP-40; HA/Flag/Myc agarose beads overnight at 4°C; also done in control and SPOP knockout cells
Flag-LMNB2 WT (lamin B2) [2] = molecular target: T1, Flag-LMNB2 WT (lamin B2) (UniProt Q03252); assay: as above
T1 sequence: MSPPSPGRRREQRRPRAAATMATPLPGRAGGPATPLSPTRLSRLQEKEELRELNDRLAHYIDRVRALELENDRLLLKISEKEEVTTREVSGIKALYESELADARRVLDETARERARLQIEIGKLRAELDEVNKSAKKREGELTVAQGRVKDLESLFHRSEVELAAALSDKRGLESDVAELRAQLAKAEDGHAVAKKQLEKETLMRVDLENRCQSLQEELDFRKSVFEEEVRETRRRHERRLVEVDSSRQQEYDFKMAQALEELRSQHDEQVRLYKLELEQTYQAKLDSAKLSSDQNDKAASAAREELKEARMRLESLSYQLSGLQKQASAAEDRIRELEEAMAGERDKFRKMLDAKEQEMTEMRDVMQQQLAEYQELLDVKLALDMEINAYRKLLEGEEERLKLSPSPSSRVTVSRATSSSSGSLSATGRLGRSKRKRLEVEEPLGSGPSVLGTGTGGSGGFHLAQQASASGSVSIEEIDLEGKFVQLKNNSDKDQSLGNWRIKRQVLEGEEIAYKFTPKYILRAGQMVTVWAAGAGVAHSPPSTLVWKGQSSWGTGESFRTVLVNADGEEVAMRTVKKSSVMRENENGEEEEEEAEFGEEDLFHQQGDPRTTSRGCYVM

Sequences of proteins named here, by UniProt entry; tags and fusion partners are left off. Residues count along the entry.
UniProt P20700: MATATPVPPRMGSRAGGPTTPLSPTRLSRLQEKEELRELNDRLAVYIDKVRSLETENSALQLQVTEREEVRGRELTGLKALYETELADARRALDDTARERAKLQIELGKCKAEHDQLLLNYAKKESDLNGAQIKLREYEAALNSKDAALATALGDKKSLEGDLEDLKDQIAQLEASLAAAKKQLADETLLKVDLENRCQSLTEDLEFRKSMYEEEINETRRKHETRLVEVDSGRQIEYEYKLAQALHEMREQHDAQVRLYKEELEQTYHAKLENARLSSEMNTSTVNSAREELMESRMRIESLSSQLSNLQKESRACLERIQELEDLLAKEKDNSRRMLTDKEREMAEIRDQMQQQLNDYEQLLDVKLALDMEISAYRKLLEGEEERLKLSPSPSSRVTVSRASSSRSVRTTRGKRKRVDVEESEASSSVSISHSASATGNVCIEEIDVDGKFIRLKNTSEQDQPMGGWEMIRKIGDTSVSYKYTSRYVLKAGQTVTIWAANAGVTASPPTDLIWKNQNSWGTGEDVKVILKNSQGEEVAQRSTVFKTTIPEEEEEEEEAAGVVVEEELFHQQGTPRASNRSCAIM
UniProt P02545, residues 1-646: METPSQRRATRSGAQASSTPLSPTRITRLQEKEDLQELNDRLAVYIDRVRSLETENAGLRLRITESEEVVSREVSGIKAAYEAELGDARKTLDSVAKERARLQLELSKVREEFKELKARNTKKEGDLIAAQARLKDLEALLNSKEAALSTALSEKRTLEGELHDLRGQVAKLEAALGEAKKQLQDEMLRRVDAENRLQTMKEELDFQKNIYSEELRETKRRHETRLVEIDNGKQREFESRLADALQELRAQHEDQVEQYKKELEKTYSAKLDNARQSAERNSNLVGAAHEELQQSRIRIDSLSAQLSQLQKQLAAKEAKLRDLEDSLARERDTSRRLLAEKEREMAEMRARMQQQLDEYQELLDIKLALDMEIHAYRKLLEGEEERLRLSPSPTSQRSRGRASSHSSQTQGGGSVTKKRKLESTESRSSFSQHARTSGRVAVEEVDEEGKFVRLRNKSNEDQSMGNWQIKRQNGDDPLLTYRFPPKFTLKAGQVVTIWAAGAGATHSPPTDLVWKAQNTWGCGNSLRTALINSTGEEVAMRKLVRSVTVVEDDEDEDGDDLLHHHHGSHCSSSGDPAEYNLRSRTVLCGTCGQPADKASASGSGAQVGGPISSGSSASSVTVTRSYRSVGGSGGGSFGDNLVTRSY
UniProt O43791: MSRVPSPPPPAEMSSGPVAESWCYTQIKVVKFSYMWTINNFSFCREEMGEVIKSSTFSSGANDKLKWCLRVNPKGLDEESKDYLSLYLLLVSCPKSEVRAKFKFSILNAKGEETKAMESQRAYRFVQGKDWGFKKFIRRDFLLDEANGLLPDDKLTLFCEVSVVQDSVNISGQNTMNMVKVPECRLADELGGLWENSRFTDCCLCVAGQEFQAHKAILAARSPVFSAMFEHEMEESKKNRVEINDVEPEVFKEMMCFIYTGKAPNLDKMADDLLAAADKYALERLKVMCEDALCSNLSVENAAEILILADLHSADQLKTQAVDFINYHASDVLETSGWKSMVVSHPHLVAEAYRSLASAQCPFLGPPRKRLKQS
UniProt Q9H7D7: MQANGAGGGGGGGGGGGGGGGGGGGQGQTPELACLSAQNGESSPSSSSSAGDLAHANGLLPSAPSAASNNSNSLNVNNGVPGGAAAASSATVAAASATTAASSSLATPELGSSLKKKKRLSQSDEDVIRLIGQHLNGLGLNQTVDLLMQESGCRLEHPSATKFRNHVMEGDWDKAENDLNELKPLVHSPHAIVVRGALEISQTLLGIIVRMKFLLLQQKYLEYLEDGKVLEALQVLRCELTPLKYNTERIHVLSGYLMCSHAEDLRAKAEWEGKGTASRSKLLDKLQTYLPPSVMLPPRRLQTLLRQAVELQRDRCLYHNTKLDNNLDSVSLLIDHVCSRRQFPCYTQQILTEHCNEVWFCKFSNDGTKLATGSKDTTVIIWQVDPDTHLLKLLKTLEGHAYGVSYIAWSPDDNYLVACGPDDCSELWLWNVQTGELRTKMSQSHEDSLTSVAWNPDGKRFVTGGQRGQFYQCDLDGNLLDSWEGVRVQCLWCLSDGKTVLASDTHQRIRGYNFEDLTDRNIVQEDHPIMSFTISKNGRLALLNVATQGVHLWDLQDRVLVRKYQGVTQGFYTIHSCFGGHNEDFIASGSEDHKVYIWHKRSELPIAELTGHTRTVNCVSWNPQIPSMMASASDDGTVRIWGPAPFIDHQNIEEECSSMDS

[3] = molecular target: Flag-LMNA (lamin A/C) (human) (UniProt P02545); assay: as above
Flag-LMNB2 ΔSBC1 = molecular target: T2, Flag-LMNB2 ΔSBC1 (UniProt Q03252); assay: as above
T2 sequence: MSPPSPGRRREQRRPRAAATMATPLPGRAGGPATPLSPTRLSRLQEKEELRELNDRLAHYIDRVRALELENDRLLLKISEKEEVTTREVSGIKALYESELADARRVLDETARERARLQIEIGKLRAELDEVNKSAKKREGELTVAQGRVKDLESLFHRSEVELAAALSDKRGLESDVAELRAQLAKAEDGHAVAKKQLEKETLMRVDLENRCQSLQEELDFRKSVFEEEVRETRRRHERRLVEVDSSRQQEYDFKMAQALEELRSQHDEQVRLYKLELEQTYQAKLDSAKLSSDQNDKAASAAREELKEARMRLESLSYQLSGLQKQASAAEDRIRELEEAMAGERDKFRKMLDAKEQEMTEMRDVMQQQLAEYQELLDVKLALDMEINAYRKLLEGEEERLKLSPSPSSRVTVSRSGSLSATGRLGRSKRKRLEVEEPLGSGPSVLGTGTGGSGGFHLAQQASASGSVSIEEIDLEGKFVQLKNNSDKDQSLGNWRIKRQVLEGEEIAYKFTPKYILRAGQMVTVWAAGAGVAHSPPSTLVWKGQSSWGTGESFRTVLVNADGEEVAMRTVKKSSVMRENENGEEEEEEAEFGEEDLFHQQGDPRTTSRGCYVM

[4] = molecular target: T3, LMNB2 with 418TSS420 mutated to 418TAA420 in SBC1 (UniProt Q03252); assay: as above
T3 sequence: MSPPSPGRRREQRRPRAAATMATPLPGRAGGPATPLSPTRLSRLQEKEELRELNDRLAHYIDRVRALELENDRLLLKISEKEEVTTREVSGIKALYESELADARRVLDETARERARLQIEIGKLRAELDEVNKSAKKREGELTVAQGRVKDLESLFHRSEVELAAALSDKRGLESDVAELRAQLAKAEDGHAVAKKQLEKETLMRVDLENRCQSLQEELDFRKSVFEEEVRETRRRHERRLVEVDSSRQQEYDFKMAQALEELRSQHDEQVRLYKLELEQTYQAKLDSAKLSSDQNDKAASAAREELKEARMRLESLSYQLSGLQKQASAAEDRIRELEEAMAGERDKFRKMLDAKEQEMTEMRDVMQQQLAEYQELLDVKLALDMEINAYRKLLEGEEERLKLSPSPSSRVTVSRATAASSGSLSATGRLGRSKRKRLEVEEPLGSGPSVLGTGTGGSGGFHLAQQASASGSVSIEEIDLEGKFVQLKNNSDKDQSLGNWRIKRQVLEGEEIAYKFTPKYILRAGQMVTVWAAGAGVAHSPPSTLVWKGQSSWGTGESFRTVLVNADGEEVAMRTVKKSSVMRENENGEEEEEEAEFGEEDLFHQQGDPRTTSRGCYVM

[5] = molecular target: endogenous LMNB1 (lamin B1) (human (endogenous in HEK293T)) (UniProt P20700); assay: co-IP; endogenous proteins in 293T cells, indicated antibodies on protein A/G beads; IP buffer 50 mM Tris-HCl pH 7.4, 150 mM NaCl, 0.1% NP-40, overnight at 4°C
[6] = molecular target: endogenous lamin A/C (LMNA) (human (endogenous in HEK293T)) (UniProt P02545); assay: as above
[7] = molecular target: T4, endogenous LMNB2 (lamin B2) (human (endogenous in HEK293T)) (UniProt Q03252); assay: as above
T4 sequence: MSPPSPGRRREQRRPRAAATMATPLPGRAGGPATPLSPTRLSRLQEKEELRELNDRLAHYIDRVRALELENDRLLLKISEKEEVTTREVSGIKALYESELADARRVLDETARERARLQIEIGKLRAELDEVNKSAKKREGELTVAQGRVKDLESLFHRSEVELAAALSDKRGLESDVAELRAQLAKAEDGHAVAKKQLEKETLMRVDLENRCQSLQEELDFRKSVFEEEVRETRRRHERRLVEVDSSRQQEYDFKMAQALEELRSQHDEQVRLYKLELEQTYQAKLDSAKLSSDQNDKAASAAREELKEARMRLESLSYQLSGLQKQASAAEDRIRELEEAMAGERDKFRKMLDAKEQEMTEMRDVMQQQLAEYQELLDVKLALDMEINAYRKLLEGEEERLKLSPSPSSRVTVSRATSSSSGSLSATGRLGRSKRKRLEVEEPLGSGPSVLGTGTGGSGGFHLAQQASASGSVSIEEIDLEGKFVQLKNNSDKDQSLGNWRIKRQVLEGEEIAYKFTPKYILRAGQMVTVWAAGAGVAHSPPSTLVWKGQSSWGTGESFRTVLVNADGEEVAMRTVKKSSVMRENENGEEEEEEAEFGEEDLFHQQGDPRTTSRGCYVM

Flag-LMNB2 K484R [8] = molecular target: T5, Flag-LMNB2 K484R (UniProt Q03252); assay: co-IP; cells transfected with Flag-WT or mutated LMNB2; endogenous WDR26 detected
T5 sequence: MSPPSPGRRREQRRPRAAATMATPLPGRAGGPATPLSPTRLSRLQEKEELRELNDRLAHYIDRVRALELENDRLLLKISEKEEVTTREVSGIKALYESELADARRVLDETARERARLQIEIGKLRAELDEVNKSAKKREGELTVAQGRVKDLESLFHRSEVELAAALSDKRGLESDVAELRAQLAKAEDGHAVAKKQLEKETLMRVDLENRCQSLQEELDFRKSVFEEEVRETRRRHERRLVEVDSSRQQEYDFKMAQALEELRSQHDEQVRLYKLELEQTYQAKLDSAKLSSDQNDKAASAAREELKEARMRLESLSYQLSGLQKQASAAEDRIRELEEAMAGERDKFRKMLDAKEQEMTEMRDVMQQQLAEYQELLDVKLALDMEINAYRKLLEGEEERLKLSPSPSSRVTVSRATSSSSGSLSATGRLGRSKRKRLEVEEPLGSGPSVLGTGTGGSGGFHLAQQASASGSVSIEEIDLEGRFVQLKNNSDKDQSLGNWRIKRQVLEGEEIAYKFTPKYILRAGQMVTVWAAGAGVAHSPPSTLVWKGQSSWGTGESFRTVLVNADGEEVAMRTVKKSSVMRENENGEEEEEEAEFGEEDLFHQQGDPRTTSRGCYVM

Flag-LMNB2 WT (lamin B2) [9] = molecular target: T1, Flag-LMNB2 WT (lamin B2); assay: as above
Flag-LMNB2 WT (lamin B2) [10] = molecular target: T1, Flag-LMNB2 WT (lamin B2); assay: co-IP; 293T cells transfected with increased Myc SPOP in combination with indicated constructs; LMNB2-WDR26 co-precipitation read
Flag-LMNB2 K484R [11] = molecular target: T5, Flag-LMNB2 K484R; assay: co-IP; 293T cells transiently transfected with both tagged partners; IP buffer 50 mM Tris-HCl pH 7.4, 150 mM NaCl, 0.1% NP-40; HA/Flag/Myc agarose beads overnight at 4°C; also done in control and SPOP knockout cells
[12] = molecular target: GST-SPOP purified from E. coli (UniProt O43791); assay: pull-down; in vitro; GST-SPOP purified from E. coli with LMNB2

Question: Which binding [1] does the source give for “Myc-SPOP WT (speckle-type POZ protein), ectopically expressed (from UniProt O43791 1-374)” here?
Answer: no binding

Question: And the binding (Flag-LMNB2 WT (lamin B2) [2])?
Answer: binds

Question: And the binding [3]?
Answer: no binding

Question: And the binding (Flag-LMNB2 ΔSBC1)?
Answer: no binding

Question: And the binding [4]?
Answer: no binding

Question: With “endogenous SPOP (from UniProt O43791 1-374)” as the molecule, how does the binding [5] read?
Answer: no binding

Question: And the binding [6]?
Answer: no binding

Question: And the binding [7]?
Answer: binds

Question: With “endogenous WDR26 (from UniProt Q9H7D7 1-661)” as the molecule, how does the binding (Flag-LMNB2 K484R [8]) read?
Answer: binds

Question: And the binding (Flag-LMNB2 WT (lamin B2) [9])?
Answer: binds

Question: What does the source list for “exogenous WDR26 (WD repeat domain 26), pCMV-WDR26-3×HA-Neo (from UniProt Q9H7D7 1-661)”?
Answer: binding (Flag-LMNB2 WT (lamin B2) [10]): binds; binding (Flag-LMNB2 K484R [11]): binds; binding (Flag-LMNB2 WT (lamin B2) [2]): binds

B1: LMNB2 of the in vitro binding test with GST-SPOP (protein, UniProt Q03252 1-620)
chain: MSPPSPGRRREQRRPRAAATMATPLPGRAGGPATPLSPTRLSRLQEKEELRELNDRLAHYIDRVRALELENDRLLLKISEKEEVTTREVSGIKALYESELADARRVLDETARERARLQIEIGKLRAELDEVNKSAKKREGELTVAQGRVKDLESLFHRSEVELAAALSDKRGLESDVAELRAQLAKAEDGHAVAKKQLEKETLMRVDLENRCQSLQEELDFRKSVFEEEVRETRRRHERRLVEVDSSRQQEYDFKMAQALEELRSQHDEQVRLYKLELEQTYQAKLDSAKLSSDQNDKAASAAREELKEARMRLESLSYQLSGLQKQASAAEDRIRELEEAMAGERDKFRKMLDAKEQEMTEMRDVMQQQLAEYQELLDVKLALDMEINAYRKLLEGEEERLKLSPSPSSRVTVSRATSSSSGSLSATGRLGRSKRKRLEVEEPLGSGPSVLGTGTGGSGGFHLAQQASASGSVSIEEIDLEGKFVQLKNNSDKDQSLGNWRIKRQVLEGEEIAYKFTPKYILRAGQMVTVWAAGAGVAHSPPSTLVWKGQSSWGTGESFRTVLVNADGEEVAMRTVKKSSVMRENENGEEEEEEAEFGEEDLFHQQGDPRTTSRGCYVM
Question: Which binding [12] does the source give for B1 here?
Answer: binds

Source: PMC12259254
